Results reported in article PMC10466050, “A comparative study of human and zebrafish glucocorticoid receptor activities of natural and pharmaceutical steroids” (Frontiers in Endocrinology, 2023).
Where “and” joins values, the source holds several entries; their conditions need not be identical. Equal entries are not always repeated.

Key:
[1] = target: T1, zfGR (Danio rerio, UniProt Q1XHK0); assay: Antagonistic activity assessment in presence of 3 nM dexamethasone, UMLN-zfGR cells; type: cell-based, zebrafish; details: for antagonist activity (in words): UMLN-zfGR cells, with dexamethasone 3 nM
[2] = target: T1, zfGR; assay: In vitro transactivation assay (agonism), UMLN-zfGR reporter cells; details: for REP (relative potency): UMLN-zfGR, ratio of EC50 values, DEX set at 1
[3] = target: T2, hGR (Homo sapiens, UniProt P04150); assay: In vitro transactivation assay (agonism), HMLN-hGR reporter cells; details: for agonist activity (in words): HMLN-hGR cells; for % max act (maximal activity) / REP (relative potency): HMLN-hGR; for % max act (maximal activity): % of maximal luciferase activity induced by 100 nM dexamethasone, at 10^-5M (10^-6M for bimedrazole, cortivazol, dexamethasone); for REP (relative potency): ratio of EC50 values, DEX set at 1
T2 sequence (P04150 1-777): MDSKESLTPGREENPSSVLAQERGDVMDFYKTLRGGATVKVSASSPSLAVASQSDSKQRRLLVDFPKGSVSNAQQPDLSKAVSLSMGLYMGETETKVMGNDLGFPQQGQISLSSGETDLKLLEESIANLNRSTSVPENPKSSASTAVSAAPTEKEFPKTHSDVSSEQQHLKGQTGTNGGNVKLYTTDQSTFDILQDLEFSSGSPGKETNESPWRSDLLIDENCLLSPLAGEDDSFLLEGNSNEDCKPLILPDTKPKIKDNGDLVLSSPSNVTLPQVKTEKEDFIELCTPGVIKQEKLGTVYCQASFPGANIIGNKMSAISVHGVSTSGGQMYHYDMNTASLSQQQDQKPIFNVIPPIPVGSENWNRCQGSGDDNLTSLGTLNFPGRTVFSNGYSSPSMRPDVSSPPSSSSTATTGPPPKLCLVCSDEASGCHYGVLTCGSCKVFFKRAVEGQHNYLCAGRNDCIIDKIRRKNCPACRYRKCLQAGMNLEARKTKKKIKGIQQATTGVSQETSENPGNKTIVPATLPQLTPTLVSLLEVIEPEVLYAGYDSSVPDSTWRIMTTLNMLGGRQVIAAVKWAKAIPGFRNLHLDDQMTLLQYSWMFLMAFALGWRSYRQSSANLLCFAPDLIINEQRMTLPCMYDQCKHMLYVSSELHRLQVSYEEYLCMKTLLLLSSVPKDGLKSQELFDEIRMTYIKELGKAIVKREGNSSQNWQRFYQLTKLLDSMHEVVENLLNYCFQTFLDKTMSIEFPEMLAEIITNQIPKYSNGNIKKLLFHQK

[4] = target: T2, hGR; details: HMLN-hGR cells, with dexamethasone 3 nM
[5] = target: T1, zfGR; assay: Transactivation assay in zebrafish liver ZFL-zfGR pool cells; type: cell-based; details: for agonist activity (in words): ZFL-zfGR pool cells
Method: The transfected cells were treated 7 days with G418 and puromycin but not cloned.
The different reporter cell lines used in this study are summarized in the Supplementary Table 1 .

Row | SMILES | IC50 ([1]; IC50, UMLN-zfGR cells, antagonistic activity, with 3 nM dexamethasone) | antagonist activity (in words) [1] | EC50 [2] | agonist activity (in words) ([2]; UMLN-zfGR cells) | agonist activity (in words) [3] | antagonist activity (in words) [4] | EC50 [3] | % max act (maximal activity) [3] | REP (relative potency) [3] | REP (relative potency) [2] | agonist activity (in words) [5] | EC50 [5]
1 | CC#C[C@]1(O)CC[C@H]2[C@@H]3CCC4=CC(=O)CCC4=C3[C@@H](c3ccc(N(C)C)cc3)C[C@@]21C [mifepristone] | 10 to 40 nM and 37 nM | partial antagonist | 10 nM | partial agonist | partial agonist | partial antagonist |  |  |  |  |  | 
2 | CC(=O)OCC(=O)[C@@]1(O)[C@H](C)C[C@H]2[C@@H]3C=C(C)C4=Cc5c(cnn5-c5ccccc5)C[C@]4(C)[C@H]3[C@@H](O)C[C@@]21C [cortivazol] |  |  |  |  |  |  | 0.18 nM | 97 ± 6% | 7.8 |  |  | 
3 | CC1=CC2C(C(O)CC3(C)C2CC(C)C3(O)C(=O)CO)C2(C)Cc3cnn(-c4ccccc4)c3C=C12 (stereo not drawn) [bimedrazole] |  |  | 0.05 nM |  |  |  |  |  |  |  |  | 
4 | C[C@]12CCC(=O)C=C1CC[C@@H]1[C@@H]2[C@@H](O)C[C@]2(C=O)[C@@H](C(=O)CO)CC[C@@H]12 [aldosterone] |  |  | 1240 nM |  | fully agonist |  | 567 nM | 96% and 96 ± 5% | 0.002 | 0.002 | only slightly activated luciferase expression | 
5 | C[C@]12CCC(=O)C=C1CC[C@@H]1[C@@H]2[C@@H](O)C[C@@]2(C)[C@H]1CC[C@]2(O)C(=O)CO [cortisol] |  |  | 15 nM |  |  |  |  |  |  |  |  | 
6 | CSCC(=O)C1C(C)CC2C3CCC4=CC(=O)C=CC4(C)C3(F)C(O)CC21C (stereo not drawn) [RU24782] |  | partially repress dexamethasone-induced activity at sub-micromolar concentrations | 1500 nM |  |  |  | 21 nM | 130 ± 7% | 0.07 | 0.001 |  | 1940 nM
7 | CCOC1=CC2=C(C)CC3C(C(O)CC4(C)C3CC(C)C43OCOC34COCO4)C2(C)CC1 (stereo not drawn) [forbimenol] |  |  |  |  |  |  | 498 nM | 96 ± 12% | 0.003 |  | only slightly activated luciferase expression | 
8 | CC1CC2C3CCC4=CC(=O)C=CC4(C)C3(F)C(O)CC2(C)C1C(=O)CC#N (stereo not drawn) [RU24858] |  | partially repress dexamethasone-induced activity at sub-micromolar concentrations | 743 nM |  |  |  | 46 nM | 103 ± 6% | 0.03 | 0.003 |  | 1030 nM
